Test results as given in article PMC3591366, “MUC1* Ligand, NM23-H1, Is a Novel Growth Factor That Maintains Human Stem Cells in a More Naïve State” (PLoS ONE, 2013).

Biological target: the molecule itself
Experiment: SEC + native gel or EMSA; multimer state of purified NM23-H1 preparations by size exclusion chromatography, native gel (5 and 10 ug protein per well) and Western blot

B1: NM23-H1_(S120G)-hexamer (natural protein)
chain: not shown
notes: differs in the multimer state (predominantly hexamer); also called NM23_(S120G)-hexamer; NM23-H1 S120G (soluble fraction)
stoichiometry N: 6

B2: NM23-H1_(S120G)-dimer (natural protein)
chain: not shown
notes: differs in the multimer state (primarily dimer); also called NM23_(S120G)-dimer; NM23-H1 dimer
stoichiometry N: 2
